T1: UNK ZnF1-3 (human, UniProt Q9C0B0 31-174)
T1 sequence: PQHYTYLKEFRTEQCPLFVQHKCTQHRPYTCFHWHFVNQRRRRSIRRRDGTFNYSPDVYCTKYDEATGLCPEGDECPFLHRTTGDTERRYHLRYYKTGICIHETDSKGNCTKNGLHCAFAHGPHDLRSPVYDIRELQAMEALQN

B1: 62764597_62776314_962_3pUTR_ENSMUSG00000028358_ENSMUST00000107415|mouse|control|control (ssRNA)
RNA: GGGAGUUCUACAGUCCGACGAUCUGGAGAUGGGGUGACCUCUGGAUGGGAACACUCAGAACCCGUGUCUGGAUCUUCCGGUGGCUCCCACCCGGGGGCGGUACUGAUGGGGGCAUGUAAGGCCACGUGCUCCUGGUAGGGCGUCAACAGAGGAUUGAGCAUCA
B2: chr1:23884524:23884525:-_ENSG00000117318_ENST00000374561|perfect_dup|FALSE|FALSE (ssRNA)
RNA: GGGAGUUCUACAGUCCGACGAUCUUUAAUAUACAUCACAUGAUUACAGAAAGUCACCUUCCUGUAAAAAAGGUACAAAAGCUAUAUACUCUAUUAUAGAGUUCAUAAUCAGGGCAGCAGAGCUUUUCUCCAAGGAAACCAGAACAACAGAGGAUUGAGCAUCA
B3: chr4:99997899:99997900:-_ENSG00000197894_ENST00000296412|hu_hu|motif|central (ssRNA)
RNA: GGGAGUUCUACAGUCCGACGAUCAGGCUCCAACUUGGCAGUGUUCACAGCAGCACCAUAACCGGUUGAAAUGCCACAACCGGGAAGGCAGACUUUAUCCAAAGGUGCUAAAGGAUCUAUUUUAGCAACAGAGAUAUCAGCCACCAACAGAGGAUUGAGCAUCA
B4: chr21:33032072:33032073:+_ENSG00000142168_ENST00000270142|hu_mus|FALSE|FALSE (ssRNA)
RNA: GGGAGUUCUACAGUCCGACGAUCUGCACCGGACCGUCGCCCUUCAGCACGCACACCGCUUUCAUCGCCAUGCUUCCCCGGGAGACGCGCGGCGGCCUCCUCCGGAGGGACCAGAGAGAGCAAGACGAGAAGCCGACGGACGGACAACAGAGGAUUGAGCAUCA
B5: chr8:81896215:81896216:-_ENSMUSG00000031681_ENSMUST00000066091|mus_mus|FALSE|FALSE (ssRNA)
RNA: GGGAGUUCUACAGUCCGACGAUCAGAUUUCAGUAUAUUUACAUAGAUUCUCCUUAGCUUCUUGGUCUGCGGUUUGGAAAGGUAGAAAAUACUGUCCCUCCUGUUCCAGCGAGGAUCCCAGUUAGCGCCGGCUCGGCGGCGCGCCAACAGAGGAUUGAGCAUCA
B6: chr16:94690093:94690094:+_ENSMUSG00000040785_ENSMUST00000117648|mus_hu|mus_mus_mus_hu_True|8_108 (ssRNA)
RNA: GGGAGUUCUACAGUCCGACGAUCGGGGACUCCUGUGGGACACACAGCCUCGAUUCCAGGGGGAAAAAGUCUUAGUCGAUACUAAUUAAAAAGUGUUAAUGAUUUUUGAAAAUCAGAUUACAUCUAUUUGAAUCAUAAAGCAAACAACAGAGGAUUGAGCAUCA
B7: 119122325_119122445_1707_CDS_ENSG00000182197_ENST00000378204|human|control|control (ssRNA)
RNA: GGGAGUUCUACAGUCCGACGAUCCUCAUACUCGGUGUUGUCUCUGUCACAGCGAGAAUCCUUGUGCUUUUGCCAGUCUUUGCCAUGCUUGCAGGUGGUGAGGAGCACAACGUCCUCCCCGUUAUGGACGUGAUAUAAGGCAUUCAACAGAGGAUUGAGCAUCA
B8: chr3:9412954:9412955:+_ENSG00000134077_ENST00000452837|hu_mus|hu_hu_hu_mus_False|1_18 (ssRNA)
RNA: GGGAGUUCUACAGUCCGACGAUCGGUUGAUAUCUCUUCUUUGAUGGCUGGAUUUUCAUAAUAGUCCAAGAUAUGUGAAUCUGAAGUGCUGCUGGCAUGCUUUUUCUUACCAUCUUUCUGAUCGAUUUUGUCUCCUUGUCCAUUCAACAGAGGAUUGAGCAUCA
B9: 30667270_30713170_122_5pUTR_ENSMUSG00000062202_ENSMUST00000168787|mouse|control|control (ssRNA)
RNA: GGGAGUUCUACAGUCCGACGAUCGGCUGUUACUCAUCCUGUGGAACAGAUGAUAGUCACUGGCCCCGACGAUGUCCCUCAGCGACCUAGAAGCCGCCACACACGUCUCUUCCGCCAGCAGCGACCCCGCCUCGUGGCCACCGCCAACAGAGGAUUGAGCAUCA
B10: 36945257_36945377_3780_CDS_ENSMUSG00000029190_ENSMUST00000132383|mouse|control|control (ssRNA)
RNA: GGGAGUUCUACAGUCCGACGAUCUACUACUCUGCAGGGUCAGAGAUGUGUUCGGGAGAAGAGCUCCUCUCUGCUGGGGCCCACCCACUCUCCGCCGGCUUCGGAGCCUGUGUCGCCCGUGUCAGAGCUGGCACUGGAACACAUCAACAGAGGAUUGAGCAUCA
B11: chr1:36558744:36558745:+_ENSG00000116863_ENST00000373178|hu_hu|FALSE|FALSE (ssRNA)
RNA: GGGAGUUCUACAGUCCGACGAUCAAUGGUGUCUGUGUCCCCACCAAGUGAGAUGGAAUAAAUGAGAGUCCUUUGGAGGCUAUUGAAGGCAGAAGGGAUCUCAGGGUCUGGCUCCAUGCAGCGUAGGAAGCAGUAGAUGGCGGUCAACAGAGGAUUGAGCAUCA
B12: 104849607_104851902_698_CDS_ENSMUSG00000021710_ENSMUST00000109315|mouse|control|control (ssRNA)
RNA: GGGAGUUCUACAGUCCGACGAUCAAUGCAUAGCUCACUCAUUCUCUUCUUCAUUGAUUUGAUUUCAUUUUUUACGUGUUCUGGAAGAUGGAGUCCAUUCCUUUUCCCCAUUUUAAUUGAUUUUUCCAAGUAUCGCCUGGCCUCCAACAGAGGAUUGAGCAUCA
B13: chr3:148802587:148802588:-_ENSG00000071794_ENST00000310053|hu_mus|hu_hu_hu_mus_False|38_108 (ssRNA)
RNA: GGGAGUUCUACAGUCCGACGAUCUCCAACCACAUGACCUCUCAUAGUUCCAAAUAAAACCAAAUCUUGCUCUUCAUCACUCGUUAGGAAGUCAUCUGGAGGGAUAAUGUCUUGGAAUUCAAAAUGUGGCAAGAAAGUUGAGUACAACAGAGGAUUGAGCAUCA
B14: chr5:68498363:68498364:+_ENSG00000153044_ENST00000283006|hu_hu|FALSE|FALSE (ssRNA)
RNA: GGGAGUUCUACAGUCCGACGAUCUUUUUCCUCUAAAUCCCAAGAUUCCUGCUGUGAUUUCAUUAUUAAUUUAUUUAGCUCUAAUAGGUGUUUCAUGUUAUCCAUGAGCACACUAGACUGUCUGCUAAUUUUCUCCAGGUUUUUCAACAGAGGAUUGAGCAUCA
B15: chr17:39847130:39847131:+_ENSG00000173812_ENST00000469257|hu_mus|FALSE|FALSE (ssRNA)
RNA: GGGAGUUCUACAGUCCGACGAUCAUUACAUUAUACAAGCUGUGAGGUUUUUAAACUUGUGACAAGGGACAGAAGGGAAAUUCUACUCAUUGCAAGGAAAUCCUCACUUAAGCUUCAGAGAGCCACAAGCACUUAAAACCCAUGCAACAGAGGAUUGAGCAUCA
B16: 42714126_42714758_5631_CDS_ENSG00000103994_ENST00000263805|human|control|control (ssRNA)
RNA: GGGAGUUCUACAGUCCGACGAUCGAUGGUCAUACACAUAAUCAUGUCUUUGUGUCCUCCAUAAACUUGUAAUCGAUCAUGAGACUGUAAUUCAUAGACACGAACAAAUUUAUCCAGGCAAGCAGUCACCAUCACUUUUCCUAGCAACAGAGGAUUGAGCAUCA
B17: chr17:88379672:88379673:+_ENSMUSG00000005370_ENSMUST00000005503|mus_mus|motif|central (ssRNA)
RNA: GGGAGUUCUACAGUCCGACGAUCUCCCUUUUGGGCUUCCUUUGACUUUGAACCUGUAUAUGGCUUUAACAUCCUUUUGCGGACCCAGCCCCUUGUUGGGCUGUCAUCAAAGAACUGUACAUGAACACGGACAGAUUUCCCUUUCAACAGAGGAUUGAGCAUCA
B18: chr18:43795804:43795805:+_ENSG00000152242_ENST00000321319|hu_mus|FALSE|FALSE (ssRNA)
RNA: GGGAGUUCUACAGUCCGACGAUCCUCCUCCAUCUUCAUCUCAGAAUUCCAAAUUAAAUCAUGGAACGGAGUCUAGGAAACGAUAUCAAAGGUGCAACAGGGAAGCAGCCUGCGCCCCGCCGUCCGCGCCUCCUCGCCGGCCCCCAACAGAGGAUUGAGCAUCA
B19: 151522430_151522550_435_CDS_ENSMUSG00000034021_ENSMUST00000016569|mouse|control|control (ssRNA)
RNA: GGGAGUUCUACAGUCCGACGAUCAAUAUCAGCAAGGCAGCAAGCCACCAGUAAACGAACAUCUUUAUCAGGAUGCUUGAGGAAGAAGUCAGAAGCAAGAUGUAAAGCUAGGUUUAGAUAAAGUUCCUUUUCCUCUUCAGAGUCCAACAGAGGAUUGAGCAUCA
B20: 103134005_103134125_2386_CDS_ENSMUSG00000033014_ENSMUST00000106860|mouse|control|control (ssRNA)
RNA: GGGAGUUCUACAGUCCGACGAUCACUGUGCCUGGGGAUCCCUGGUAUUCUGGCAGCAUUCUGAGCCAGUCUCAUUUGAUGGGCUUGAAAUGCUCCACAGUUCAUGUUGCCUCUUUGCAUUGUUUGCACACUGAUCAAUCUUGGCAACAGAGGAUUGAGCAUCA
B21: chr11:87044496:87044497:-_ENSMUSG00000046442_ENSMUST00000055438|mus_mus|motif|central (ssRNA)
RNA: GGGAGUUCUACAGUCCGACGAUCGCAUGGAAUAUCAUUACGCUUUCUGAUCUUCACAUUUCCACUAUAUCCUUCCCAACGGUUUUCCCUCCAUGGCAAAGAACUUCUUAACAUCUUGUUUCUCUUCCCACUUCGAGUAAGUGACAACAGAGGAUUGAGCAUCA
B22: chr4:115894766:115894767:+_ENSMUSG00000028698_ENSMUST00000030464|mus_hu|mus_mus_mus_hu_True|8_28 (ssRNA)
RNA: GGGAGUUCUACAGUCCGACGAUCUUCCACACGGAAAUGUACUUCGGGUUUUCCAACGGCCAGUACCAGUCCGGCCAAACUACCCGAACAGGGUCCUCCCCCUCUCUUCUCUCCUCCACAACAAAAUAACAAAAUACUUUCAAGCAACAGAGGAUUGAGCAUCA

Binding signal data for 22 molecules are collected here from article PMC12136788.

Some of the results follow.

For the assay, the target named is T1, UNK ZnF1-3. Description: nsRBNS (natural sequence RNA bind-n-seq); RBNS binding buffer (assumed for nsRBNS): 25 mM Tris pH 7.5, 150 mM KCl, 3 mM MgCl2, 0.01% Triton X-100, 500 ug/ml BSA, 20 U/ml SUPERase-In, 4 C; UNK is unkempt and MSI1 is Musashi-1; names of the RNAs are library labels; protein concentration not given here; high values mean tight binding.
Consider B1, for which the binding signal is 0.582 enrichment R.

The molecule B2 registered a binding signal of 0.848 enrichment R.

In the case of B3, the binding signal was 1.53 enrichment R.

With B4, the binding signal was found to be 1.03 enrichment R.

B5 gave a binding signal of 1.51 enrichment R.

The molecule B6 displayed a binding signal of 0.94 enrichment R.

The molecule B7 yielded a binding signal of 0.473 enrichment R.

Turning to B8, the binding signal amounted to 0.404 enrichment R.

On to B9, for which the binding signal is 0.624 enrichment R.

Molecule B10 displayed a binding signal of 0.674 enrichment R.

The molecule B11 registered a binding signal of 1.4 enrichment R.

B12 had a binding signal of 0.654 enrichment R.

The molecule B13 registered a binding signal of 1.22 enrichment R.

B14 displayed a binding signal of 0.594 enrichment R.

Turning to B15, the binding signal stood at 1.3 enrichment R.

Regarding B16, the binding signal worked out at 1.12 enrichment R.

Regarding B17, the binding signal stood at 0.538 enrichment R.

B18 came in with a binding signal of 1.55 enrichment R.

With B19, the binding signal amounted to 1.31 enrichment R.

In the case of B20, the binding signal was found to be 0.446 enrichment R.

B21 yielded a binding signal of 0.556 enrichment R.

Take B22: the binding signal is 1.22 enrichment R.
